# Some of the results follow.
# B1: PhoQ; a variant is named by its letters at X, in order, P23837 (parent)
# chain: MKKLLRLFFPLSLRVRFLLATAAVVLVLSLAYGMVALIGYSVSFDKTTFRLLRGESNLFYTLAKWENNKLHVELPENIDKQSPTMTLIYDENGQLLWAQRDVPWLMKMIQPDWLKSNGFHEIEADVNDTSLLLSGDHSIQQQLQEVREDDDDAEMTHSVAVNVYPATSRMPKLTIVVVDTIPVELKSSYMVWSWFIYVLSANLLLVIPLLWVAAWWSLRPIEALAKEVRELEEHNRELLNPATTRELTSLVRNLNRLLKSERERYDKYRTTLTDLTHSLKTPLXXLQXXLRSLRSEKMSVSDAEPVMLEQISRISQQIGYYLHRASMRGGTLLSRELHPVAPLLDNLTSALNKVYQRKGVNISLDISPEISFVGEQNDFVEVMGNVLDNACKYCLEFVEISARQTDEHLYIVVEDDGPGIPLSKREVIFDRGQRVDTLRPGQGVGLAVAREITEQYEGKIVAGESMLGGARMEVIFGRQHSAPKDE
# Variants of: B1
# Assay: enrichment ratio after two sorts for PhoP signalling (ratio (wild type AVST 3.29)); higher = more functional
# Details: with PhoP (E. coli)
row,Variant,enrichment ratio
1,IYRW,≤ 0.25
2,REEL,≤ 0.25
3,MKVR,≤ 0.25
4,TFHM,≤ 0.25
5,WYKE,≤ 0.25
6,TMLQ,12.2
7,GPHW,≤ 0.25
8,SCYI,0.295
9,AWSS,≤ 0.25
10,YCYT,≤ 0.25
11,PMDD,≤ 0.25
12,EYKS,≤ 0.25
13,RLDW,≤ 0.25
14,GMMV,≤ 0.25
15,KVVD,≤ 0.25
16,PWYG,≤ 0.25
17,HPMN,≤ 0.25
18,GTGI,≤ 0.25
19,TWAR,≤ 0.25
20,LSGQ,≤ 0.25
21,YCMN,≤ 0.25
22,VYGI,≤ 0.25
23,HQSY,≤ 0.25
24,DRIH,≤ 0.25

row,Variant,enrichment ratio
1,RYHS,≤ 0.25
2,PLIC,≤ 0.25
3,PRRI,≤ 0.25
4,DTPD,≤ 0.25
5,SKFC,≤ 0.25
6,EFKG,≤ 0.25
7,IYEM,≤ 0.25
8,WAKD,≤ 0.25
9,SMER,≤ 0.25
10,ALPL,≤ 0.25
11,GQAM,10.1
12,EIYV,≤ 0.25
13,LIPE,≤ 0.25
14,GILS,11
15,QRVE,≤ 0.25
16,MRNV,≤ 0.25
17,QFMP,≤ 0.25
18,HYDG,≤ 0.25
19,PHDT,≤ 0.25
20,EQCT,≤ 0.25
21,NRDQ,≤ 0.25
22,RAFR,≤ 0.25
23,WDSF,≤ 0.25
24,DGMY,≤ 0.25

row,Variant,enrichment ratio
1,SYQN,≤ 0.25
2,KMYP,≤ 0.25
3,FLVR,≤ 0.25
4,PDVI,≤ 0.25
5,RQHT,≤ 0.25
6,YYHY,≤ 0.25
7,AWIN,≤ 0.25
8,HFRA,≤ 0.25
9,HSCD,≤ 0.25
10,HKAN,≤ 0.25
11,TGCC,21.5
12,HLLL,1.99
13,VIKD,≤ 0.25
14,HQKT,≤ 0.25
15,QLSA,≤ 0.25
16,AQLK,5.59
17,IRKL,≤ 0.25
18,KLTW,≤ 0.25
19,EKFG,≤ 0.25
20,DGWY,≤ 0.25
21,SKML,8.89
22,VDAH,≤ 0.25
23,NPTV,≤ 0.25
24,VAIS,≤ 0.25

row,Variant,enrichment ratio
1,FCFY,≤ 0.25
2,GDYV,≤ 0.25
3,VLWV,≤ 0.25
4,TMDH,≤ 0.25
5,TYQI,0.263
6,RSLE,≤ 0.25
7,RHEF,≤ 0.25
8,RQDR,≤ 0.25
9,TEKA,≤ 0.25
10,ILLK,≤ 0.25
11,WSKL,≤ 0.25
12,IGWF,≤ 0.25
13,HMCL,2.41
14,EQQI,≤ 0.25
15,QSDC,7.21
16,IFDQ,≤ 0.25
17,VNIS,≤ 0.25
18,KIIL,≤ 0.25
19,VIWF,≤ 0.25
20,IHMR,≤ 0.25
21,ANSL,16.8
22,MHFK,≤ 0.25
23,MCVR,≤ 0.25
24,EEHG,≤ 0.25

row,Variant,enrichment ratio
1,PDSI,≤ 0.25
2,WTFF,≤ 0.25
3,RFQN,≤ 0.25
4,HSCM,4.17
5,QGRG,≤ 0.25
6,DRFY,≤ 0.25
7,KGRR,≤ 0.25
8,TKQR,≤ 0.25
9,SAVW,≤ 0.25
10,YIRR,≤ 0.25
11,NCRC,≤ 0.25
12,LHSC,≤ 0.25
13,VSKE,≤ 0.25
14,YKVA,≤ 0.25
15,THMS,0.719
16,LCPA,≤ 0.25
17,KYLA,≤ 0.25
18,VDSD,≤ 0.25
19,KDVE,≤ 0.25
20,PWAC,≤ 0.25
21,GYTH,≤ 0.25
22,DESA,≤ 0.25
23,QHGS,≤ 0.25
24,VQGA,≤ 0.25

row,Variant,enrichment ratio
1,AAMH,≤ 0.25
2,WKWQ,≤ 0.25
3,LHNL,≤ 0.25
4,RYLC,≤ 0.25
5,YTNY,≤ 0.25
6,CFIP,≤ 0.25
7,PACL,≤ 0.25
8,LKKS,≤ 0.25
9,EVSY,≤ 0.25
10,HSCF,≤ 0.25
11,NPHK,≤ 0.25
12,GDWM,≤ 0.25
13,YHSK,≤ 0.25
14,QSCD,≤ 0.25
15,DALH,≤ 0.25
16,FWIR,≤ 0.25
17,HPSS,≤ 0.25
18,SICN,20.7
19,NNNG,≤ 0.25
20,FNAI,≤ 0.25
21,NDES,≤ 0.25
22,AYTQ,≤ 0.25
23,SMDA,≤ 0.25
24,RMNA,≤ 0.25

row,Variant,enrichment ratio
1,RHQT,≤ 0.25
2,RNFY,≤ 0.25
3,CLMP,≤ 0.25
4,HESD,≤ 0.25
5,QDSY,≤ 0.25
6,QFMS,≤ 0.25
7,CFYR,≤ 0.25
8,MAKV,≤ 0.25
9,DSKF,≤ 0.25
10,APLG,≤ 0.25
11,QTNL,10.8
12,TKKI,≤ 0.25
13,HCAS,≤ 0.25
14,PLEP,≤ 0.25
15,FKHD,≤ 0.25
16,MCPM,≤ 0.25
17,RINW,≤ 0.25
18,MKWK,≤ 0.25
19,RMCY,≤ 0.25
20,LSAC,≤ 0.25
21,DYVP,≤ 0.25
22,QRRI,≤ 0.25
23,FNFH,≤ 0.25
24,FMVC,≤ 0.25

row,Variant,enrichment ratio
1,HCPE,≤ 0.25
2,QNSM,6.97
3,KAEY,≤ 0.25
4,NSVM,≤ 0.25
5,WPAR,≤ 0.25
6,IGLA,≤ 0.25
7,RIPC,≤ 0.25
8,VDLT,≤ 0.25
9,LAPM,≤ 0.25
10,ASNC,≤ 0.25
11,GLNI,≤ 0.25
12,FFLK,≤ 0.25
13,VTTV,≤ 0.25
14,DEHN,≤ 0.25
15,WKAW,≤ 0.25
16,EYWY,≤ 0.25
17,ARNI,≤ 0.25
18,RFIY,≤ 0.25
19,MDVS,≤ 0.25
20,RHHH,≤ 0.25
21,LWVM,≤ 0.25
22,HPKH,≤ 0.25
23,GTHH,≤ 0.25
24,PFRE,≤ 0.25

row,Variant,enrichment ratio
1,WCFW,≤ 0.25
2,IFNI,≤ 0.25
3,RHCP,≤ 0.25
4,GFYN,≤ 0.25
5,DKNR,≤ 0.25
6,LREQ,≤ 0.25
7,QKCT,≤ 0.25
8,MIIT,≤ 0.25
9,ISTK,≤ 0.25
10,LKLE,≤ 0.25
11,NFLE,≤ 0.25
12,MGAY,1.59
13,QGDC,3.9
14,DFDW,≤ 0.25
15,WKYN,≤ 0.25
16,WFWN,≤ 0.25
17,MPWP,≤ 0.25
18,VQTQ,≤ 0.25
19,RSPG,≤ 0.25
20,VDNF,≤ 0.25
21,RLRF,≤ 0.25
22,PICY,≤ 0.25
23,EFSC,≤ 0.25
24,GCSG,6.35

row,Variant,enrichment ratio
1,FTLC,6.55
2,RVHV,≤ 0.25
3,FGFN,≤ 0.25
4,MTNY,≤ 0.25
5,SAGK,≤ 0.25
6,EHTQ,≤ 0.25
7,KRLK,≤ 0.25
8,YLCF,≤ 0.25
9,HEAY,≤ 0.25
10,FYYS,≤ 0.25
11,AHTI,≤ 0.25
12,NWNN,≤ 0.25
13,TSST,15
14,FNHP,≤ 0.25
15,QAGF,4.8
16,WCKF,≤ 0.25
17,GQML,7.95
18,QHAR,≤ 0.25
19,SAWE,≤ 0.25
20,LISD,≤ 0.25
21,DYEV,≤ 0.25
22,LYPE,≤ 0.25
23,HYSS,≤ 0.25
24,IEHE,≤ 0.25

row,Variant,enrichment ratio
1,VCNY,≤ 0.25
2,HMFI,≤ 0.25
3,SYLM,≤ 0.25
4,DRWT,≤ 0.25
5,RPKG,≤ 0.25
6,ECLY,≤ 0.25
7,HWNH,≤ 0.25
8,CAYL,≤ 0.25
9,ELEQ,≤ 0.25
10,FEHL,0.313
11,HMSD,≤ 0.25
12,GMYY,≤ 0.25
13,RREI,≤ 0.25
14,WGLM,6.8
15,ESIS,≤ 0.25
16,TAPN,≤ 0.25
17,ECPS,≤ 0.25
18,QGVM,≤ 0.25
19,HVRM,≤ 0.25
20,HKMM,≤ 0.25
21,ITPK,≤ 0.25
22,FPAY,≤ 0.25
23,GWSN,≤ 0.25
24,SQMK,≤ 0.25

row,Variant,enrichment ratio
1,GHPH,≤ 0.25
2,PCVD,≤ 0.25
3,KRAE,≤ 0.25
4,RLFS,≤ 0.25
5,NQVR,≤ 0.25
6,NPCP,≤ 0.25
7,RERK,≤ 0.25
8,GAER,≤ 0.25
9,IMQQ,≤ 0.25
10,IYQQ,≤ 0.25
11,SLGA,≤ 0.25
12,AYCQ,≤ 0.25
13,QMNR,≤ 0.25
14,QLDS,≤ 0.25
15,WTPN,≤ 0.25
16,KSHR,≤ 0.25
17,WNVK,≤ 0.25
18,TSQR,≤ 0.25
19,RRLL,≤ 0.25
20,GWRQ,≤ 0.25
21,PFNV,≤ 0.25
22,PMWF,≤ 0.25
23,VGFH,≤ 0.25
24,TVEV,≤ 0.25

row,Variant,enrichment ratio
1,SSSF,10
2,SPNP,≤ 0.25
3,KLKH,≤ 0.25
4,KAMG,≤ 0.25
5,EADS,≤ 0.25
6,PQTK,≤ 0.25
7,SFCT,≤ 0.25
8,LLDI,≤ 0.25
9,MTSM,5.44
10,KFDF,≤ 0.25
11,HHNN,≤ 0.25
12,TNKD,≤ 0.25
13,ARDY,≤ 0.25
14,HHHK,≤ 0.25
15,KQVM,≤ 0.25
16,ERYD,≤ 0.25
17,PKKE,≤ 0.25
18,VHDT,≤ 0.25

# From a collection of fitness landscapes (doi:10.1126/science.1257360)
